From PubChem BioAssay AID1645887 (National Center for Advancing Translational Sciences (NCATS), 2021)
Several values for one entry are separate records, joined by “and”; a condition that tells them apart may be missing. Identical values can stand only once. In all, about 16,000 compounds went through this assay and about 40 (0.2%) were called active. Inconclusive results, whose numbers are uncertain, are shown with a selection of clear calls. Calls come from the whole dose curve; as a rule, active = well fitted activation curve with a large enough effect; inconclusive = small, poorly fitted or top-dose-only effect, or another doubt; inactive = no such curve, though single readings can be large or run the other way. Potencies beside an inconclusive call are fits to weak or partial responses and may not hold up. Some compounds were tested as several samples or in several runs, with calls that do not always agree.

Each compound was assayed against Rap guanine nucleotide exchange factor 4 (Homo sapiens) (UniProt Q8WZA2) (assay: Validation qHTS for agonist of cAMP-regulated guanine nucleotide exchange factor 4 (EPAC2)). Conditions: EPAC2 Rap1B BODIPY-GDP exchange, fluorescence; activation: stronger effect = higher value.
UniProt Q8WZA2, sequence (Q8WZA2 whole entry, looked up): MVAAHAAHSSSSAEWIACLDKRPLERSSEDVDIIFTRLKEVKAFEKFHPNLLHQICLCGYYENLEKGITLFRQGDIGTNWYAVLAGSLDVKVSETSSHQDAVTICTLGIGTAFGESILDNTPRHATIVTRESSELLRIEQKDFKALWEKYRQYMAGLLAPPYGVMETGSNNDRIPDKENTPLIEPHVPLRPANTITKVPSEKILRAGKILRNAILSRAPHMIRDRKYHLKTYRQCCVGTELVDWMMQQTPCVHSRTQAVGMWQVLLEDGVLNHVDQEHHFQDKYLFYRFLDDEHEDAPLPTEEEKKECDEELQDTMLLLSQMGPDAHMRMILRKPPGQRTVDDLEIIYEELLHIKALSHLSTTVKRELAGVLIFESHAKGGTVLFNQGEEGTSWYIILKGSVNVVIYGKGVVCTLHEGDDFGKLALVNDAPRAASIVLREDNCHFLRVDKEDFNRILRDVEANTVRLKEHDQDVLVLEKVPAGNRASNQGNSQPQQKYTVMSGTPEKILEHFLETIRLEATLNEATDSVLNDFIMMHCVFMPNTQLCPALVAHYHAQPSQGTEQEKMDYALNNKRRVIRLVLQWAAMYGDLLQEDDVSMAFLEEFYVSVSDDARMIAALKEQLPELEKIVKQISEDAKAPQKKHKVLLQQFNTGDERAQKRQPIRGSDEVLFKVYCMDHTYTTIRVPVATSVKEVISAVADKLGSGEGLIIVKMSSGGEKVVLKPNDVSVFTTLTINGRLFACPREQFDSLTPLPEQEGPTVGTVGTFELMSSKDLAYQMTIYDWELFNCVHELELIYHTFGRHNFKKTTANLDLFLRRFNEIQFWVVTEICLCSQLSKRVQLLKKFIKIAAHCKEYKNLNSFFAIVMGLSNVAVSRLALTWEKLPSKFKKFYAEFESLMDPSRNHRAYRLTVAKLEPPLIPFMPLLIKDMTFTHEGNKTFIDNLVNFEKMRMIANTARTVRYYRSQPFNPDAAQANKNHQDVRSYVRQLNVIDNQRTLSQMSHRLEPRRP
Source text: Principle Investigator: Xiaodong Cheng Ph.D.
The University of Texas Medical Branch, […], TX
In multi-cellular eukaryotic organisms, the effects of cAMP are transduced by two ubiquitously-expressed intracellular cAMP receptors, the classic protein kinase A/cAMP-dependent protein kinase (PKA/cAPK) and the more recently discovered exchange protein directly activated by cAMP/cAMP-regulated guanine nucleotide exchange factor (EPAC/cAMP-GEF). Both PKA and EPAC are ubiquitously expressed in all tissues, and an increase in intracellular cAMP levels will lead to the activation of both PKA and EPAC. Therefore, careful dissections of the individual role and relative contribution of EPAC and PKA within the overall cAMP signaling in various model systems are critical for further elucidating the mechanism of cAMP signaling. To date no EPAC-specific antagonists and agonist, as well as isoform-specific agonists have been reported, and developing EPAC-specific pharmacological probes to determine the physiological functions that EPAC play in the overall cAMP-mediated signaling remains a major challenge within the research field. Furthermore, identified regulators of EPAC may lead to new mechanism-based therapeutic strategies specifically targeting the EPAC / cAMP-signaling components as EPAC has been implicated to play important roles in major human pathological conditions such as diabetes, heart disease, and cancer.
This qHTS will be used to screen the Molecular Libraries Small Molecule Repository (MLSMR) as a concentration-titration series using the NCGC unique quantitative screening (qHTS) platform to find activators for EPAC1. In addition, this assay will also be used as a counterscreen for the EPAC2 qHTS. This fluorescent based assay is developed and validated for EPAC1 that measures exchange using EPAC effector Rap1 complex with BODIPY-GDP, a GDP analog with a tethered fluorophores. Activators are identified by monitoring the change in fluorescence signal as the exchanged free BODIPY-GDP has a reduced fluorescence compared to Rap1-bound BODIPY-GDP. Increase in signal (activation) is the desired outcome for the EPAC1 agonist while no activity in this assay is desired for the EPAC2 agonist counterscreen.
[1] de Rooij, J., Zwartkruis, F. J., Verheijen, M. H., Cool, R. H., Nijman, S. M., Wittinghofer, A., and Bos, J.L. (1998) Nature 396, 474-477.
Briefly, three uL of reagents (100 nM EPAC2, 250 nM RAP1B-BODIPY-GDP, 50 uM GDP) were dispensed into a 1536-well Greiner black solid-bottom medium binding assay plate. Controls and test compounds (23 nL) were transferred to the plate via a Kalypsys pin tool equipped with a 1536-pin array. The plates were centrifuged at 1,000 rpm for 15 seconds followed by 5 minute incubation at room temperature. The assay plates were read at 5 minute intervals for 30 minutes in the ViewLux plate reader using 480nm excitation and 540nm emission filters. The results were normalized to the agonist positive control of 6.5 mM cAMP.
% is set by controls: 0 for no effect and ±100 for the full control effect; potency is the fitted concentration of half-maximal effect; tags give direction and shape of the fitted curve.
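Throughout, for activation: exchange makes BODIPY-GDP fluorescence drop when released from Rap1B; series mostly up to about 150 µM.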

Compound | Potency | activation
CNC1(c2ccccc2Cl)CCCCC1=O (centres undefined) | inconclusive: 126 µM [activator, single point] | 
C[C@H]1[C@@H]2Cc3ccc(O)cc3[C@@]1(C)CCN2C |  | inactive: -8.04%
CC1=C[C@@H]2c3cccc4[nH]cc(c34)C[C@H]2N(C)C1 | inconclusive: 44.7 µM [activator, partial curve] | 
O=C(O)c1ccccc1-c1c2cc(Br)c(=O)cc-2oc2[c]([Hg])c(O)c(Br)cc12 | inconclusive: 1.12 µM [activator, partial curve, poor fit] | 
CN1CCCC2(CCN(C(=O)c3ccco3)CC2)C1 |  | inactive: 0.865%
O=C1OC2(c3cc(Br)c(O)cc3Oc3c2cc(Br)c(O)[c]3[Hg])c2ccccc21 (centres undefined) | active: 3.98 µM and inconclusive: 1 µM [activator, partial curve, poor fit] | 
COc1cc(C[C@@H](C)N)c(OC)cc1C |  | inactive: -5.23%
OCCCBr | inconclusive: 100 µM [activator, partial curve] | 
O=C1c2ccccc2C(=O)C1C(=O)C(c1ccccc1)c1ccccc1 | inconclusive: 112 µM [activator, partial curve] | 
CN1C2CC(OC(=O)C(CO)c3ccccc3)CC1C(O)C2 (centres undefined) |  | inactive: -0.713%
Cc1nccc2c1[nH]c1ccccc12 | inconclusive: 35.5 µM [activator, partial curve, poor fit] | 
O=S(=O)(O)c1cc(O)ccc1O |  | inactive: -9.91%
CN(C)C1C(=O)C(C(N)=O)=C(O)[C@@]2(O)C(=O)C3=C(O)c4c(O)cccc4[C@@](C)(O)C3CC12 (some centres undefined) | inconclusive: 100 µM [activator, partial curve] | 
C[C@@H]1[C@H]2Cc3ccc(O)cc3[C@]1(C)CCN2C | inconclusive: 398 µM [activator, single point] | 
H-YPFVEPI-OH | inconclusive: 3.16 µM [activator, partial curve, poor fit] | 
CN(N=O)c1cc(O)ccc1O | inconclusive: 112 µM [activator, partial curve, poor fit] | 
C#C[C@]1(OC(=O)CCCCCC)CC[C@H]2[C@@H]3CCC4=CC(=O)CC[C@@H]4[C@H]3CC[C@@]21C | inconclusive: 126 µM [activator, partial curve, poor fit] | 
CCOC(=O)[C@]12Cc3c(cc(OC)c(OC)c3OC)[C@H]1N(Cc1ccccc1)C(=O)c1ccccc12 |  | inactive: -19.3%
CC(C)C1C(=O)N2CCC[C@H]2[C@]2(O)O[C@](NC(=O)[C@@H]3C=C4c5cccc6[nH]cc(c56)C[C@H]4N(C)C3)(C(C)C)C(=O)N12 (some centres undefined) | inconclusive: 112 µM [activator, single point] | 
O=C1NC(=O)C(=O)C(=O)N1 | inconclusive: 112 µM [activator, single point] | 

Compound | Potency | activation
CCN(CC)C(=O)[C@@H]1C=C2c3cccc4[nH]cc(c34)C[C@H]2N(C)C1 | inconclusive: 355 µM [activator, partial curve, poor fit] | 
C[C@@H](CO)NC(=O)[C@@H]1C=C2c3cccc4[nH]cc(c34)C[C@H]2N(C)C1 | inconclusive: 20 µM [activator, partial curve, poor fit] | 
O=P1(NCCCl)OCCCN1CCCl (centres undefined) |  | inconclusive: -23.3% [activator]
C=CCN1CCC2(C)c3cc(O)ccc3CC1[C@@H]2C (some centres undefined) | inconclusive: 7.94 µM [activator, full curve, poor fit] | 
O=P(O)(O)C(Cl)(Cl)P(=O)(O)O | inconclusive: 112 µM [activator, partial curve, poor fit] | 
CC1=NN=C(c2ccc(N)cc2)c2cc3c(cc2C1)OCO3 | active: 89.1 µM | 
CN1C[C@@H](C(=O)N[C@@]2(C)O[C@]3(O)C4CCCN4C(=O)[C@@H](Cc4ccccc4)N3C2=O)C=C2c3cccc4[nH]cc(c34)C[C@@H]21 (some centres undefined) | inconclusive: 112 µM [activator, single point] | 
O=C1C(Cl)=C(Cl)C(=O)C(Cl)=C1Cl | inconclusive: 126 µM [activator, single point] | 
COC[C@H]1OC(=O)c2coc3c2[C@@]1(C)C1=C(C3=O)C2CCC(=O)[C@@]2(C)C[C@H]1OC(C)=O (some centres undefined) | inconclusive: 89.1 µM [activator, partial curve] | 
Nc1ccc(Cl)cc1N | inconclusive: 126 µM [activator, partial curve, poor fit] | 
[2H]C([2H])([2H])[C@H](N)Cc1ccccc1 | inconclusive: 126 µM [activator, partial curve, poor fit] | 
c1cnc(N2CCC3(CCNCC3)CC2)nc1 |  | inconclusive: -29.1% [activator]
NCC(O)c1ccc(O)cc1 (centres undefined) |  | inconclusive: -38.3% [activator]
c1ccc2c(c1)Nc1ccccc1S2 |  | inconclusive: -46.9% [activator]
C[N+]1([O-])[C@@H]2CC(OC(=O)[C@H](CO)c3ccccc3)C[C@H]1[C@@H]1O[C@@H]12 (some centres undefined) | inconclusive: 39.8 µM [activator, partial curve] | 
CC(C)C[C@H]1C(=O)N2CCCC2[C@]2(O)O[C@](NC(=O)[C@@H]3C=C4c5cccc6[nH]cc(c56)CC4N(C)C3)(C(C)C)C(=O)N12 (some centres undefined) | inconclusive: 100 µM [activator, partial curve, poor fit] | 
CN1C[C@H](C(=O)N[C@]2(C)O[C@@]3(O)[C@@H]4CCCN4C(=O)[C@H](Cc4ccccc4)N3C2=O)C=C2c3cccc4[nH]cc(c34)C[C@H]21 | inconclusive: 70.8 µM [activator, single point] | 
O=C1OC(c2ccc(O)c(S(=O)(=O)O)c2)(c2ccc(O)c(S(=O)(=O)O)c2)c2c(Br)c(Br)c(Br)c(Br)c21 | inconclusive: 4.47 µM [activator, partial curve, poor fit] | 
CC(C)=C[C@@H]1[C@@H](C(=O)OCc2coc(Cc3ccccc3)c2)C1(C)C | inconclusive: 100 µM [activator, partial curve, poor fit] | 
